The campaign covered roughly 390,000 compounds. About 4,000 (1%) were called active. This list was built around the results that the source calls inconclusive (neither active nor inactive); the mix of calls is not that of the screen. Calls come from the whole dose curve; as a rule, active = well fitted inhibition curve with a large enough effect; inconclusive = small, poorly fitted or top-dose-only effect; inactive = no such curve, though single readings can be large or run the other way. Potencies beside an inconclusive call are fits to weak or partial responses and may not hold up.
What follows are compounds tested against Thioredoxin reductase 1, cytoplasmic (Rattus norvegicus) (UniProt O89049) (assay: qHTS Assay for Inhibitors of Mammalian Selenoprotein Thioredoxin Reductase 1 (TrxR1): qHTS). Conditions: recombinant rTrxR1, NADPH fluorescence consumption, selenite substrate; series mostly up to 114 µM; activity change, negative = inhibition: at the top concentration.
Sequence of UniProt O89049 (O89049 whole entry, looked up): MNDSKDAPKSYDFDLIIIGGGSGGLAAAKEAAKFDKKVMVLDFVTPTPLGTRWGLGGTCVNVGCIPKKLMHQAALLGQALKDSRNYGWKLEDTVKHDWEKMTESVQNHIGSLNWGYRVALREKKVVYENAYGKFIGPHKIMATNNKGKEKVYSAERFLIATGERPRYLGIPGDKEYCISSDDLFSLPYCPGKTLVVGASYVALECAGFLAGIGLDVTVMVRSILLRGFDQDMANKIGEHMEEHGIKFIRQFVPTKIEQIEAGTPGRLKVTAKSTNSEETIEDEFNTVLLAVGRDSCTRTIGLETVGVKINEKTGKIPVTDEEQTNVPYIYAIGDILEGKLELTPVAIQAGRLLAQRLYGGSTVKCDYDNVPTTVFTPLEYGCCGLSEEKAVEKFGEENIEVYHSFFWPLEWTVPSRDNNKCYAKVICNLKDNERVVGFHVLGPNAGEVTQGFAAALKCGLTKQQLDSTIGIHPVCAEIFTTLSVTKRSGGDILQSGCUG
Outline: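 Rat TrxR1 (90 nM in the dispensed reagent) was pre-reduced with 400 uM NADPH for 5 min at room temperature, then incubated with compound for 15 min. After 400 uM selenite was added, NADPH fluorescence (Ex 340/Em 450 nm) was followed for 8 min.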
% is set by controls: 0 for no effect and ±100 for the full control effect; potency is the fitted concentration of half-maximal effect; tags give direction and shape of the fitted curve.
Note: nearly all actives have a fitted effect of over 65% in size.

| SMILES | Potency | activity change, negative = inhibition |
| --- | --- | --- |
| O=[N+]([O-])c1cc(S(=O)(=O)N2CCCC2)ccc1NN=C1CCCCC1 | inconclusive: 79.4 µM [inhibitor, single point] |  |
| CC(C)Oc1ccc(/C=C(\C#N)C(=O)NC2CC2)cc1 | inconclusive: 89.1 µM [inhibitor, single point] |  |
| COc1ccc(OC)c(NC(=O)c2c(NC(=O)CCC(=O)O)sc3c2CCCCC3)c1 |  | inactive: -18.7% |
| CCOC(=O)N(C)OC(=O)Nc1ccc(Cl)c(Cl)c1 | active: 15.8 µM |  |
| Clc1nnc(NN=C2CCCC2)c2ccccc12 | inconclusive: 39.8 µM [inhibitor, partial curve, poor fit] |  |
| O=C1C2C3C=CC(C3)C2C(=O)N1c1ccc(Cc2ccncc2)cc1 (configuration not stated) |  | inactive: -2.91% [at 57.1 µM] |
| CS(=O)(=O)c1cccc(NC(=O)c2ccc(Cl)c(Cl)c2)c1 |  | inactive: 6.21% [at 57.1 µM] |
| Cc1cc(-c2ccccc2)nc2[n+]1CCN2C |  | inactive: 1.71% |
| C/C=C(/C)C(=O)O[C@@H]([C@H](O)c1cc2ccc(=O)oc2cc1OC)C(C)(C)O[C@@H]1O[C@H](CO)[C@@H](O)[C@H](O)[C@H]1O | inconclusive: 44.7 µM [inhibitor, partial curve] |  |
| Cc1cccc([C@@H]2C[C@H]3CN(Cc4cccc(Cl)c4)C(=O)[C@]34CCCN24)n1 | inconclusive: 39.8 µM [inhibitor, partial curve, poor fit] |  |
| O=[N+]([O-])c1ccc(N=Nc2ccc(O)c3ccccc23)cc1 | inconclusive: 70.8 µM [inhibitor, partial curve, poor fit] |  |
| Cc1[nH]c2ccccc2c1C(=O)CSc1ccc(Cl)cc1 |  | inactive: 17.8% [at 57.1 µM] |
| NS(=O)(=O)c1ccc(CCNC(=O)CN2CCN(c3cccc(Cl)c3)CC2)cc1 | inconclusive: 3.98 µM [inhibitor, single point] |  |
| COc1ccc(OC)c(CN2CCN(C(=O)c3cc(S(=O)(=O)N4CCOCC4)ccc3C)CC2)c1 | inconclusive: 70.8 µM [inhibitor, partial curve] |  |
| C#CCSc1nc2sc3c(c2c(=O)n1-c1cccc(OC)c1)CCN(C(C)=O)C3 | inconclusive: 79.4 µM [inhibitor, partial curve, poor fit] |  |
| O=C(CSc1oc(-c2ccco2)nc1S(=O)(=O)c1ccc(Cl)cc1)NCC1CCCO1 (configuration not stated) | inconclusive: 14.1 µM [inhibitor, single point] |  |
| O=C(N/N=C/c1cn(Cc2ccccc2)c2ccccc12)c1ccncc1 |  | inactive: -1.12% [at 57.1 µM] |
| O=[n+]1c2c(n([O-])c3cc(F)c(N4CCCC4)cc31)CCC2 | inconclusive: 56.2 µM [inhibitor, partial curve, poor fit] |  |
| COc1ccccc1S(=O)(=O)N1CCn2cccc2C1C (configuration not stated) | inconclusive: 79.4 µM [inhibitor, single point] |  |
| CCc1ccc(Oc2nnnn2-c2ccc(C(N)=O)cc2)cc1 |  | inactive: 35.6% |
| CCOC(=O)c1nc(Nc2ccc(OC)cc2)c2ccccc2n1 | inconclusive: 89.1 µM [inhibitor, single point] |  |
| O=C1C(CN2CCCC2)CCCC1CN1CCCC1 (configuration not stated) | inconclusive: 3.55 µM [inhibitor, single point] |  |
| O=C(CSc1nnc(SCc2cccc3ccccc23)s1)c1ccc2c(c1)OCO2 | inconclusive: 50.1 µM [inhibitor, partial curve, poor fit] |  |

| SMILES | Potency | activity change, negative = inhibition |
| --- | --- | --- |
| Cc1cc2c(n1-c1ccc(C(=O)NCC(C)c3ccccc3)cc1)CCCC2 (configuration not stated) | inconclusive: 31.6 µM [inhibitor, partial curve] |  |
| CS(=O)(=O)Nc1cccc(-c2cn3c(n2)SCC3)c1 | active: 31.6 µM |  |
| Cc1sc(C2C(C#N)=C(N)N(c3cccc(Cl)c3)C3=C2C(=O)CCC3)cc1CN1CCOCC1 (configuration not stated) | inconclusive: 56.2 µM [inhibitor, partial curve, poor fit] |  |
| COc1ccc(S(=O)(=O)N(C)CC(=O)NCc2ccco2)cc1OC | inconclusive: 44.7 µM [inhibitor, partial curve] |  |
| Cc1cc(C)nc(N/N=C/C2=C(N3CCOCC3)C(=C\c3ccc(Cl)cc3)/CC2)n1 | inconclusive: 79.4 µM [inhibitor, partial curve] |  |
| CCOC(=O)c1ccc(N2C(=O)c3n[nH]c(C)c3C2c2ccc(O)c(OC)c2)cc1 (configuration not stated) | inconclusive: 3.55 µM [inhibitor, full curve] |  |
| COC(=O)c1ccc(NC(=S)NC2CC(C)(C)NC(C)(C)C2)cc1 |  | inactive: -23.7% |
| O=C1CS/C(=N\N=C\c2ccco2)N1c1ccccc1 | inconclusive: 50.1 µM [inhibitor, partial curve] |  |
| CCCOC(=O)c1c(N)sc2c1CCC2 | inconclusive: 12.6 µM [inhibitor, partial curve] |  |
| CC1Cc2ccccc2N1C(=O)COC(=O)c1ccc([N+](=O)[O-])o1 (configuration not stated) | inconclusive: 50.1 µM [inhibitor, partial curve] |  |
| O=C(CSc1c2c(nc3ccc(Cl)cc13)CCCC2)N1CCN(C(=O)c2ccco2)CC1 | inconclusive: 56.2 µM [inhibitor, partial curve, poor fit] |  |
| COC(=O)c1ccccc1NC(=O)CN1CCC(n2nnc3cc(C(F)(F)F)ccc32)CC1 | inconclusive: 89.1 µM [inhibitor, single point] |  |
| COc1cc(=O)n(C)c2cc(N(C)C)ccc12 | inconclusive: 2.82 µM [inhibitor, partial curve, poor fit] |  |
| CC(=O)N1c2ccc(S(=O)(=O)N3CCC(C(=O)N4CCN(c5cccc(C(F)(F)F)c5)CC4)CC3)cc2CC1C (configuration not stated) | inconclusive: 56.2 µM [inhibitor, partial curve, poor fit] |  |
| Cc1cc(C)cc(C(=O)C[n+]2cccc(Br)c2)c1 |  | inactive: -6.03% |
| CCCC(NC(=O)CCl)c1ccccc1 (configuration not stated) | inconclusive: 25.1 µM [inhibitor, partial curve] |  |
| COCCOC(=O)C1=C(C)NC(SCC(=O)NC(C)(C)C)=C(C#N)C1c1ccco1 (configuration not stated) | inconclusive: 28.2 µM [inhibitor, full curve] |  |
| N#Cc1c(-c2ccccc2)no[n+]1[O-] | inconclusive: 9.47 µM [inhibitor, partial curve] |  |
| CCn1c(SCC(=O)N2CCCC2)nnc1-c1ccco1 | inconclusive: 79.4 µM [inhibitor, single point] |  |
| CCC(C)(C)n1nnnc1C(c1ccc(O)c(OC)c1)N1CCc2ccccc2C1 (configuration not stated) | active: 0.0794 µM |  |
| S=c1[nH]nc(-c2ccccn2)n1/N=C/c1c(Cl)cccc1Cl |  | inactive: -13.3% [at 57.1 µM] |
| O=c1[nH]c(-c2ccc(-c3cccc(Cl)c3)o2)nc2ccccc12 | active: 50.1 µM |  |
| Cc1cc(/C=C2\SC(=S)NC2=O)c(C)n1C1CC1 | inconclusive: 8.91 µM [inhibitor, full curve] |  |

| SMILES | Potency | activity change, negative = inhibition |
| --- | --- | --- |
| Cc1ccc2c(c1)CC1(CN2C)C(=O)OC2(CCCCC2)OC1=O | inconclusive: 79.4 µM [inhibitor, single point] |  |
| O=C(CCS(=O)(=O)c1ccc(Br)cc1)NCc1ccc(F)cc1 | inconclusive: 89.1 µM [inhibitor, single point] |  |
| Cc1sc2ncnc(Sc3nnnn3-c3ccc(Cl)cc3)c2c1C | inconclusive: 56.2 µM [inhibitor, partial curve] |  |
| Cn1c(NC(=O)c2ccc(Br)o2)cc(=O)n(C)c1=O | inconclusive: 25.1 µM [inhibitor, single point] |  |
| Cc1ccc(N2C(=O)N(CC(=O)Nc3cc(C)cc(C)c3)C(=O)C2C)cc1 (configuration not stated) |  | inactive: 9.42% |
| COc1ccc2ccccc2c1C(=O)/C=C\c1ccoc1 | inconclusive: 50.1 µM [inhibitor, partial curve] |  |
| CCOC(=O)c1ccc(C(=S)N2CCCC2)cc1 | inconclusive: 79.4 µM [inhibitor, partial curve, poor fit] |  |
| COc1ccc(-c2cc(C(F)(F)F)nc(NCc3ccco3)n2)cc1OC |  | inactive: 4.21% |
| CCn1cc(Br)c(C(=O)NCc2ccco2)n1 | inconclusive: 31.6 µM [inhibitor, partial curve, poor fit] |  |
| CC(C)(C)C1CCc2c(sc3c2C(=O)NC(c2ccco2)N3)C1 (configuration not stated) | inconclusive: 15.8 µM [inhibitor, partial curve, poor fit] |  |
| O=c1[nH]c2ccccc2n2c(=S)[nH]nc12 | inconclusive: 35.5 µM [inhibitor, partial curve, poor fit] |  |
| O=C(c1ccc([N+](=O)[O-])o1)N(Cc1nnc(-c2ccccc2Cl)o1)C1CC1 | inconclusive: 50.1 µM [inhibitor, partial curve] |  |
| CC1Cc2ccccc2N1C(=O)CN1CCC(n2nnc3cc(C(F)(F)F)ccc32)CC1 (configuration not stated) |  | inactive: -46.8% |
| CCc1ccc2[nH]c(=O)c(C3C(C#N)=C(N)Oc4c3ccc3cccnc43)cc2c1 (configuration not stated) | active: 44.7 µM |  |
| Cn1ccsc1=NC(=O)c1ccc(Cl)c([N+](=O)[O-])c1 |  | inactive: 12.5% |
| Cc1ccc(NC(=O)Cn2c(=O)n(Cc3ccc4c(c3)OCO4)c(=O)c3ccc(C(=O)NC4CCCCC4)cc32)cc1 |  | inactive: 16.2% |
| C=CCOc1cccc(C2/C(=C(\O)c3ccc(F)cc3)C(=O)C(=O)N2CCN(C)C)c1 (configuration not stated) | inconclusive: 28.2 µM [inhibitor, full curve, poor fit] |  |
| S=c1[nH]c(-c2ccccc2)cn1/N=C/c1cccc2ccccc12 | inconclusive: 35.5 µM [inhibitor, single point] |  |
| Cc1cc(C)n(C(C[N+](=O)[O-])c2ccc(Cl)cc2)n1 (configuration not stated) | active: 5.62 µM |  |
| CCc1ccc(C(=O)NC(=S)Nc2ccc(N3CCOCC3)cc2)cc1 | inconclusive: 44.7 µM [inhibitor, partial curve] |  |
| CC1=Nc2ccc(C)cc2/C1=C/c1c(N)n2c(S(=O)(=O)C(C)C)nsc2nc1=O | inconclusive: 70.8 µM [inhibitor, partial curve] |  |

— PubChem BioAssay AID588453 (National Center for Advancing Translational Sciences (NCATS), 2011)
